B1: PhoQ; a variant is named by its letters at X, in order, P23837 (parent)
chain: MKKLLRLFFPLSLRVRFLLATAAVVLVLSLAYGMVALIGYSVSFDKTTFRLLRGESNLFYTLAKWENNKLHVELPENIDKQSPTMTLIYDENGQLLWAQRDVPWLMKMIQPDWLKSNGFHEIEADVNDTSLLLSGDHSIQQQLQEVREDDDDAEMTHSVAVNVYPATSRMPKLTIVVVDTIPVELKSSYMVWSWFIYVLSANLLLVIPLLWVAAWWSLRPIEALAKEVRELEEHNRELLNPATTRELTSLVRNLNRLLKSERERYDKYRTTLTDLTHSLKTPLXXLQXXLRSLRSEKMSVSDAEPVMLEQISRISQQIGYYLHRASMRGGTLLSRELHPVAPLLDNLTSALNKVYQRKGVNISLDISPEISFVGEQNDFVEVMGNVLDNACKYCLEFVEISARQTDEHLYIVVEDDGPGIPLSKREVIFDRGQRVDTLRPGQGVGLAVAREITEQYEGKIVAGESMLGGARMEVIFGRQHSAPKDE

From a collection of fitness landscapes (doi:10.1126/science.1257360) come the findings set out here.

Some of the results follow.

In the assay the parent is B1. Nature of the assay: enrichment ratio after two sorts for PhoP signalling (ratio (wild type AVST 3.29)); higher = more functional. The conditions noted are these: with PhoP (E. coli).
With NRRV, the enrichment ratio was at most 0.25.

As to NYDQ, the enrichment ratio was at most 0.25.

Turning to VCFG, the enrichment ratio is at most 0.25.

On to RCSN, for which the enrichment ratio was at most 0.25.

Consider QGIH, for which the enrichment ratio is at most 0.25.

For the variant ARDE, the enrichment ratio is at most 0.25.

Turning to DSHD, the enrichment ratio was at most 0.25.

Consider IARL, for which the enrichment ratio was at most 0.25.

With FIYD, the enrichment ratio was at most 0.25.

IMMQ: the enrichment ratio was at most 0.25.

On to VRNV, for which the enrichment ratio is at most 0.25.

Turning to RWFW, the enrichment ratio is at most 0.25.

Consider ITQV, for which the enrichment ratio was at most 0.25.

For the variant NAWD, the enrichment ratio is at most 0.25.

Consider IFTN, for which the enrichment ratio is at most 0.25.

TQEC: the enrichment ratio is at most 0.25.

LTRY: the enrichment ratio was at most 0.25.

Consider FNDV, for which the enrichment ratio was at most 0.25.

GYVN: the enrichment ratio is at most 0.25.

Consider NRGG, for which the enrichment ratio is at most 0.25.

As for TTDV, the enrichment ratio came to 7.66.

As to DCMR, the enrichment ratio is at most 0.25.

With VTYS, the enrichment ratio is at most 0.25.

For RVMS, the enrichment ratio is at most 0.25.

For KQMA, the enrichment ratio was at most 0.25.

For GFFF, the enrichment ratio is at most 0.25.

In the case of QPAC, the enrichment ratio is at most 0.25.

On to VWWM, for which the enrichment ratio was at most 0.25.

For HYCG, the enrichment ratio was at most 0.25.

Take GKSP: the enrichment ratio was at most 0.25.

Regarding NITG, the enrichment ratio is at most 0.25.

Consider ACSC, for which the enrichment ratio worked out at 8.

As for HSSY, the enrichment ratio was at most 0.25.

On to MGYD, for which the enrichment ratio is at most 0.25.

Consider NIMM, for which the enrichment ratio amounted to 16.

On to SHYP, for which the enrichment ratio was at most 0.25.

In the case of RFRE, the enrichment ratio was at most 0.25.

Take HCPH: the enrichment ratio is at most 0.25.

Consider TYII, for which the enrichment ratio is at most 0.25.

For VHGD, the enrichment ratio was at most 0.25.

ALGQ: the enrichment ratio is at most 0.25.

With KLLM, the enrichment ratio is at most 0.25.

With GMEF, the enrichment ratio was at most 0.25.

As to PWLS, the enrichment ratio is at most 0.25.

For PGRH, the enrichment ratio was at most 0.25.

Turning to DPQW, the enrichment ratio was at most 0.25.

Take LSNE: the enrichment ratio is at most 0.25.

KTHF: the enrichment ratio is at most 0.25.

On to GKDC, for which the enrichment ratio was at most 0.25.

For GIFV, the enrichment ratio is at most 0.25.

For the variant NTWQ, the enrichment ratio is at most 0.25.

For NGLM, the enrichment ratio amounted to 13.2.

As for RMTA, the enrichment ratio is at most 0.25.

Consider SEVI, for which the enrichment ratio is 12.2.

For the variant FSAD, the enrichment ratio was at most 0.25.

Consider PIKT, for which the enrichment ratio was at most 0.25.

Turning to DYKA, the enrichment ratio was at most 0.25.

As for DQDF, the enrichment ratio is at most 0.25.

In the case of FQMA, the enrichment ratio was at most 0.25.

Turning to RKPD, the enrichment ratio was at most 0.25.

With IPQE, the enrichment ratio is at most 0.25.

Take YCEW: the enrichment ratio is at most 0.25.

Regarding DEAL, the enrichment ratio was at most 0.25.

With MYNF, the enrichment ratio was at most 0.25.

Regarding RLYC, the enrichment ratio is at most 0.25.

For the variant VNGE, the enrichment ratio is at most 0.25.

On to NDMT, for which the enrichment ratio was at most 0.25.

For the variant NYHS, the enrichment ratio is at most 0.25.

HKDK: the enrichment ratio was at most 0.25.

Take VDHW: the enrichment ratio was at most 0.25.

For the variant VVTW, the enrichment ratio was at most 0.25.

As to WDKT, the enrichment ratio was at most 0.25.

On to SANH, for which the enrichment ratio is at most 0.25.

IKSD: the enrichment ratio was at most 0.25.

On to DFYG, for which the enrichment ratio was at most 0.25.

In the case of FGTC, the enrichment ratio was at most 0.25.

Turning to GNVS, the enrichment ratio is 1.31.

Turning to NMDT, the enrichment ratio is at most 0.25.

As for KFLF, the enrichment ratio is at most 0.25.

Consider GIAS, for which the enrichment ratio was found to be 14.2.

Regarding QCYD, the enrichment ratio was at most 0.25.

GFVA: the enrichment ratio was at most 0.25.

Consider FMGC, for which the enrichment ratio was at most 0.25.

Consider RVMH, for which the enrichment ratio was at most 0.25.

Turning to VQNM, the enrichment ratio was at most 0.25.

Regarding NWLN, the enrichment ratio was at most 0.25.

For the variant WYFH, the enrichment ratio was at most 0.25.

With IYKD, the enrichment ratio is at most 0.25.

As for QVFL, the enrichment ratio was determined as 0.258.

For TFTH, the enrichment ratio was at most 0.25.

On to ELIN, for which the enrichment ratio is at most 0.25.

For LFYD, the enrichment ratio is at most 0.25.

Consider SPGP, for which the enrichment ratio was at most 0.25.

For the variant TKAP, the enrichment ratio was at most 0.25.

As to NTFN, the enrichment ratio is at most 0.25.

SHRF: the enrichment ratio was at most 0.25.

For the variant GVKN, the enrichment ratio was at most 0.25.

For the variant QQAG, the enrichment ratio was at most 0.25.

Regarding PWIE, the enrichment ratio is at most 0.25.

With TSPG, the enrichment ratio was at most 0.25.

As for SDNW, the enrichment ratio is at most 0.25.

Take FHHC: the enrichment ratio was at most 0.25.

LYWS: the enrichment ratio was at most 0.25.

As for CLPT, the enrichment ratio is at most 0.25.

For ECKD, the enrichment ratio is at most 0.25.

As to VEFY, the enrichment ratio was at most 0.25.

For the variant WGNL, the enrichment ratio was at most 0.25.

For the variant NTHA, the enrichment ratio was at most 0.25.

As for SCWD, the enrichment ratio is at most 0.25.

As for LGRF, the enrichment ratio was at most 0.25.

Turning to EWVL, the enrichment ratio was at most 0.25.

On to QTDI, for which the enrichment ratio was found to be 7.15.

Take MDMK: the enrichment ratio is at most 0.25.

TLVC: the enrichment ratio was at most 0.25.

Regarding TSRK, the enrichment ratio was at most 0.25.

For FLFD, the enrichment ratio was at most 0.25.

Take QTHV: the enrichment ratio is at most 0.25.

Turning to WQLF, the enrichment ratio is at most 0.25.

As to AHTA, the enrichment ratio was at most 0.25.

On to NDLL, for which the enrichment ratio was at most 0.25.

As for FTEH, the enrichment ratio is at most 0.25.

For QIWL, the enrichment ratio was at most 0.25.

In the case of EDIA, the enrichment ratio is at most 0.25.

On to FMAC, for which the enrichment ratio was at most 0.25.

Consider SADM, for which the enrichment ratio was at most 0.25.

For AQYS, the enrichment ratio was at most 0.25.

With FSRC, the enrichment ratio was at most 0.25.

For the variant QSIC, the enrichment ratio is at most 0.25.

In the case of WNRF, the enrichment ratio was at most 0.25.

For the variant RNPA, the enrichment ratio is at most 0.25.

On to TDMG, for which the enrichment ratio is at most 0.25.

In the case of WRAK, the enrichment ratio was at most 0.25.

On to HNGN, for which the enrichment ratio was at most 0.25.

Consider MNPG, for which the enrichment ratio is at most 0.25.

Consider TYDK, for which the enrichment ratio is at most 0.25.

As for VVSQ, the enrichment ratio is at most 0.25.

Regarding AVPM, the enrichment ratio is 1.53.

With RLAG, the enrichment ratio is at most 0.25.

As for PKII, the enrichment ratio is at most 0.25.

PFLE: the enrichment ratio is at most 0.25.

Consider DQRW, for which the enrichment ratio was at most 0.25.

On to YNFA, for which the enrichment ratio is at most 0.25.

Consider KYFC, for which the enrichment ratio is at most 0.25.

Regarding RFVL, the enrichment ratio was at most 0.25.

FGFV: the enrichment ratio was at most 0.25.

As to WSTR, the enrichment ratio is at most 0.25.

With QDYR, the enrichment ratio is at most 0.25.

Take EQGP: the enrichment ratio is at most 0.25.

With DAPN, the enrichment ratio was at most 0.25.

DIIK: the enrichment ratio is at most 0.25.

As to HIMW, the enrichment ratio is at most 0.25.

Take EMVQ: the enrichment ratio is at most 0.25.

With YVWW, the enrichment ratio was at most 0.25.

Turning to STNS, the enrichment ratio was 0.68.

Consider RKAI, for which the enrichment ratio was at most 0.25.

MYLK: the enrichment ratio was 0.845.

In the case of KLFT, the enrichment ratio was at most 0.25.

In the case of AVDH, the enrichment ratio was at most 0.25.

As to NWIQ, the enrichment ratio was at most 0.25.

Take YKKG: the enrichment ratio was at most 0.25.

SEHR: the enrichment ratio was at most 0.25.

For DCDS, the enrichment ratio is at most 0.25.

Regarding IQVW, the enrichment ratio was at most 0.25.

In the case of PHFM, the enrichment ratio is at most 0.25.

As for RHSC, the enrichment ratio is at most 0.25.

As to YIAV, the enrichment ratio was 0.757.

For ATFC, the enrichment ratio was at most 0.25.

Consider HASF, for which the enrichment ratio is at most 0.25.

For FIIH, the enrichment ratio was at most 0.25.

As to YRFF, the enrichment ratio was at most 0.25.

As to VGDI, the enrichment ratio was at most 0.25.

Turning to YPHY, the enrichment ratio is at most 0.25.

With MCKY, the enrichment ratio is at most 0.25.

On to YSHE, for which the enrichment ratio is at most 0.25.

With LVKW, the enrichment ratio was 4.52.

Regarding GFLF, the enrichment ratio was at most 0.25.

In the case of QSYK, the enrichment ratio is at most 0.25.

Turning to LCVC, the enrichment ratio is at most 0.25.

For the variant YLHH, the enrichment ratio was at most 0.25.

ADPY: the enrichment ratio was at most 0.25.

Take VTVK: the enrichment ratio is at most 0.25.

Regarding VVVY, the enrichment ratio is at most 0.25.

On to VGSS, for which the enrichment ratio is at most 0.25.

As for FNFY, the enrichment ratio was at most 0.25.

On to SPMW, for which the enrichment ratio is at most 0.25.

In the case of FRCF, the enrichment ratio was at most 0.25.

For the variant GEDF, the enrichment ratio is at most 0.25.

As for KLDL, the enrichment ratio was at most 0.25.

On to IWIV, for which the enrichment ratio is at most 0.25.

For LKPM, the enrichment ratio was at most 0.25.

Turning to SGRI, the enrichment ratio is at most 0.25.

Consider IPAL, for which the enrichment ratio is at most 0.25.

As for LHPV, the enrichment ratio was at most 0.25.

Turning to HVLM, the enrichment ratio is at most 0.25.

As for ACAM, the enrichment ratio came out at 30.7.
